Z-score data for 111 compounds are collected here from PubChem BioAssay AID488969 (Vanderbilt High Throughput Screening Facility, 2010).

The structures appear in SMILES notation. Whole data set: some 110,000 compounds, median “z-score” near -0.1, cut for the highest 2% near 2. Some of the results follow. The source made the active and inactive calls.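 The calls were made as follows: active = z-score in the third read window above 3 or below -3; inactive = the rest.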

In the experiment the target is Metabotropic glutamate receptor 8 (Rattus norvegicus) (UniProt P70579). Description: rat mGluR8 modulators via GIRK flux, primary screen, cell-based, thallium flux, HTS (AID 488969). The conditions noted are these: HEK293 rat mGluR8, GIRK (G protein-gated inwardly rectifying potassium channel) thallium flux, FluoZin2; at 10 µM; stronger effect = higher value; submaximal glutamate (EC20) added with thallium.
Sequence of UniProt P70579 (P70579 whole entry, looked up): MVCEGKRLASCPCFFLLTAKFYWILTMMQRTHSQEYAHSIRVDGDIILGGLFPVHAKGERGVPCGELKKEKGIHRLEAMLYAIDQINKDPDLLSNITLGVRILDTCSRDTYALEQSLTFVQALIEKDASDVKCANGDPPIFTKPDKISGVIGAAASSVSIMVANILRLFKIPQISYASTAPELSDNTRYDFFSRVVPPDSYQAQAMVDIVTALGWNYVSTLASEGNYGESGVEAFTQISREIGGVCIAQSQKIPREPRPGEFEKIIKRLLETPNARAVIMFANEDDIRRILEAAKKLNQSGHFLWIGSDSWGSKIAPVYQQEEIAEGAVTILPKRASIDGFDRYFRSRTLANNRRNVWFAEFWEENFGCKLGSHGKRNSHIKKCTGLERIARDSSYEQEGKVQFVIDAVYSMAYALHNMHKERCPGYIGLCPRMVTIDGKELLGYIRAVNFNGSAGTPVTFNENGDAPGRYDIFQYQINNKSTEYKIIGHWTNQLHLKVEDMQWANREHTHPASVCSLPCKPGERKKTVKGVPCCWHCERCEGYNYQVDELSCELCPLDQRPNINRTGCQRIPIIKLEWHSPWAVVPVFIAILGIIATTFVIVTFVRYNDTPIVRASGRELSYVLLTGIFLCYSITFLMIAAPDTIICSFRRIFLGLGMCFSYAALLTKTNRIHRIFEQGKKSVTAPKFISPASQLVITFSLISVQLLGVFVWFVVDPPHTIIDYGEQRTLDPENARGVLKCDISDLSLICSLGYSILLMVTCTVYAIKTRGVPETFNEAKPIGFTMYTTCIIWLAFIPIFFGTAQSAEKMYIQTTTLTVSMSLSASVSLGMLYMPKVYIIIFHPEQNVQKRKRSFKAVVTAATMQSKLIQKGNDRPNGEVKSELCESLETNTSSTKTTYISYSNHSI
On to `Cc1c(C(=O)OC2CCCCC2)sc2nc[nH]c(=O)c12`, for which the z-score came to 0.108.

Compound `CCOC(=O)c1c(NC(=O)c2ccc(N3C(=O)[C@@H]4[C@H](C3=O)[C@H]3C=C[C@@H]4C3)cc2)sc2c1CCCC2` displayed a z-score of -0.227.

As for `CCCCC(CC)C(=O)Nc1ccc(Nc2ccccc2)cc1` (stereo unspecified), the z-score is -0.119.

In turn, `Cc1nc2ccc(N)cc2s1` yielded a z-score of -0.192.

Turning to `CC(C)(C)NS(=O)(=O)c1cccc(S(=O)(=O)c2cccc(S(=O)(=O)NC(C)(C)C)c2)c1`, the z-score is -0.252.

`Cc1cccc(C(=O)NCc2nnc(SCC(=O)N3CCN(c4ccccc4)CC3)n2C)c1`: the z-score stood at 0.0474.

In turn, `O=C(NCCN1CCOCC1)c1cn(CCc2ccccc2)nn1` yielded a z-score of -0.563.

`CCCCCC(=O)Nc1ccc(-c2csc(C)n2)cc1` registered a z-score of -0.378.

`COCCCNC(=O)Cc1ccccc1OC`: the z-score came to 0.194.

Compound `Cn1c(=O)c2c(nc(CN3CCN(c4ccccc4F)CC3)n2CCCc2ccccc2)n(C)c1=O` displayed a z-score of -0.651.

In turn, `CCCCN1C(=O)C2C(c3ccc(OC)cc3O)NC(CC(C)C)(C(=O)O)C2C1=O` (stereo unspecified) displayed a z-score of -0.261.

As to `O=C(COC(=O)[C@H](Cc1ccccc1)NC(=O)c1cccs1)NC1CCCCC1`, the z-score is -0.0264.

Turning to `CCOC(=O)C1CN(S(=O)(=O)c2cccc(C(F)(F)F)c2)c2cc(CC(=O)OC)ccc2O1` (stereo unspecified), the z-score is -0.43.

`CC(C)C1O/C(=N/C(=O)Nc2ccc(Cl)c(Cl)c2)NC1=O` (stereo unspecified) showed a z-score of 0.0865.

Take `Brc1ccc(N=C/C=C/C=C/Nc2ccc(Br)cc2)cc1`: the z-score is 0.151.

Turning to `Cc1ccc(OCC(O)Cn2c(=N)n(Cc3ccccc3)c3ccccc32)cc1` (stereo unspecified), the z-score is active: 4.01.

As to `CCc1ccccc1NC(=S)NC1CC2CCC(C1)N2Cc1ccco1` (stereo unspecified), the z-score was -0.15.

Turning to `Cc1nc(NC(=O)c2cccc(-c3cc4ccccc4oc3=O)c2)ccc1Br`, the z-score is -0.316.

Compound `Cc1nc2ccccc2c(=O)n1/N=C/c1ccncc1` gave a z-score of -0.171.

As for `Cc1nc(N2CCN(C(=O)COc3ccccc3)CC2)c2c(C)c(C)sc2n1`, the z-score is active: -4.29.

Consider `COc1ccc(C2CC(=O)Nc3sc(=N)c4c(N)c(C#N)c(N)nc4c32)cc1OC` (stereo unspecified), for which the z-score is -0.465.

In the case of `CC(C)Oc1ccc(C(=O)NC2CCCCC2)cc1`, the z-score turned out to be 0.0934.

In the case of `O=C(O/N=C(\c1ccccc1)c1ccccn1)c1cccc2ccccc12`, the z-score is -0.00197.

The compound `O=C(NCc1cccs1)C1CCN(c2nc3ccccc3o2)CC1` came in with a z-score of 0.764.

With `CCNC(=O)CSc1nnc(-c2cc(-c3ccc(Cl)cc3)nc3ccccc23)o1`, the z-score is -0.336.

Turning to `CCOC(=O)Cc1cc(=O)n2[nH]c(-c3ccc(C)cc3)cc2n1`, the z-score is -0.304.

Compound `CCc1[nH]nc2c1C(c1cccc(OC(=O)N3CCOCC3)c1)C(C#N)=C(N)O2` (stereo unspecified) had a z-score of -1.34.

Compound `CC1=NN(C(=O)c2cccc(Cn3nc(C)c([N+](=O)[O-])c3C)c2)C(O)(C(F)(F)F)C1` (stereo unspecified) yielded a z-score of -0.74.

Consider `COc1ccc(-c2cn(-c3ccc(SC(F)F)cc3)c3[n+]2CCC3)cc1OC`, for which the z-score came to 0.034.

`COc1ccc(-c2[nH]nc3c2C(c2ccoc2)C(C#N)=C(N)O3)cc1` (stereo unspecified) registered a z-score of -0.602.

On to `CC(C)NC(=O)CCCn1c(=S)[nH]c2cc3c(cc2c1=O)OCO3`, for which the z-score turned out to be 0.566.

Regarding `COc1ccc(N2CC(C(=O)Nc3cc(C)on3)CC2=O)cc1` (stereo unspecified), the z-score is -0.318.

Turning to `CC1CCN(C2CCN(S(=O)(=O)c3ccc(F)cc3)CC2)CC1`, the z-score was -0.0245.

In turn, `CCCOc1ccc(C(C)=O)cc1CSCCC#N` registered a z-score of -0.853.

`Cc1ccc(-n2[nH]c(C)c(/C=C3/C=Nc4ccccc43)c2=O)cc1C`: the z-score turned out to be 0.229.

For `O=C(CCc1ccc(S(=O)(=O)N2CCOCC2)cc1)N1CCCC1`, the z-score worked out at 2.62.

The compound `O=C(NC(=S)Nn1cnc2c(cnn2-c2ccccc2)c1=O)c1ccc(Oc2ccccc2)cc1` had a z-score of 2.08.

`COc1ccc(N2CCN(C(=O)CCc3nc(-c4ccc(C)cc4)no3)CC2)cc1` had a z-score of -0.121.

As for `O=C(CSc1nc2cc(Cl)ccc2o1)Nc1ccc(N2CCOCC2)cc1`, the z-score came out at 0.208.

In the case of `Cc1cccc(C)c1Nc1nnc(SCc2cn3cccc(C)c3n2)s1`, the z-score was -0.119.

In the case of `COC(=O)c1[nH]c2ccc(Cl)cc2c1NC(=O)CN1CCc2cc(OC)c(OC)cc2C1`, the z-score was -0.16.

As to `Cc1sc2ncnc(OCC(=O)NCC3CCCO3)c2c1C` (stereo unspecified), the z-score stood at 0.408.

Compound `CN1C(=O)C(O)(CC(=O)c2ccccn2)c2cc(Br)ccc21` (stereo unspecified) returned a z-score of 1.17.

In turn, `COc1ccc(OC)c(C2CC(=O)c3c([nH]c(C(=O)OCC4CCCO4)c3C)C2)c1` (stereo unspecified) gave a z-score of 0.286.

For `CCN(CCNS(=O)(=O)c1ccc2c(c1)oc(=O)n2C)c1ccccc1`, the z-score came to 0.162.

Consider `O=C(COC(=O)c1ccc(F)cc1)Nc1ccccc1N1CCOCC1`, for which the z-score was -0.182.

`Cn1c(=O)c(=O)n(C)c2cc(S(=O)(=O)N3CCN(Cc4ccccc4)CC3)ccc21` registered a z-score of -0.418.

The compound `CC(C)[C@H](NC(=O)c1ccco1)C(=O)OCC(=O)N1CCc2ccccc21` registered a z-score of -0.646.

`C/C(=N\Nc1ccc(F)cc1F)c1ccc(F)cc1` displayed a z-score of -0.00789.

`CCOP(=O)(OCC)C(NC(=O)Nc1ccc(Cl)cc1)c1ccccc1` (stereo unspecified) returned a z-score of 0.164.

Turning to `O=C(NCCN1CCOCC1)NC1(C(F)(F)F)Oc2ccccc2O1`, the z-score is -0.129.

`Cn1c(SCC(=O)C(C)(C)C)nnc1-c1ccccn1`: the z-score was -0.215.

In turn, `CCn1c(SCC(=O)c2ccccc2)nnc1-c1cnccn1` gave a z-score of -0.894.

Regarding `COc1ccc(NC(=S)N2N=CCC2c2ccccc2)cc1` (stereo unspecified), the z-score is -0.671.

On to `Cc1ccc(/C=N/c2sc3c(c2C#N)CCC3)o1`, for which the z-score was -0.653.

`CCOC(=O)c1c(C)[nH]c(C(=O)COC(=O)CCS(=O)(=O)c2ccc(C)cc2)c1C` gave a z-score of -0.00371.

Consider `O=[N+]([O-])c1ccc2nc(-c3ccccc3)cc(-c3ccccc3)c2c1`, for which the z-score was -0.109.

In turn, `N#CC(=C1SC=CS1)c1nc(-c2ccccc2)cs1` gave a z-score of 0.0939.

Take `COCC(=O)NC1CCN(S(=O)(=O)c2ccc(C(=O)O)cc2)CC1`: the z-score is 0.595.

Compound `CCSc1nc(-c2ccccc2)nc(C(Cl)Cl)n1` displayed a z-score of 0.853.

Compound `COCCNC(=O)c1ccc(CS(=O)(=O)c2ccc(OC)cc2)o1` came in with a z-score of -0.306.

`CCC(C)Sc1nnc(Cc2cc(=O)[nH]c(=O)[nH]2)n1-c1ccc(OC)cc1` (stereo unspecified) gave a z-score of 0.424.

As to `CCOC(=O)c1ccc(NC(=O)N2CCN(c3ccccn3)CC2)cc1`, the z-score is -0.176.

Compound `Cc1ccc(-c2nc(C(=O)NC3CCCCCC3)no2)cc1` yielded a z-score of 0.205.

Take `CCc1c(C)nc2ncnn2c1Nc1ccc(C(C)=O)cc1`: the z-score came out at 0.0606.

In turn, `Cc1noc(C)c1C(=O)N1CCc2ccccc2C1` had a z-score of 1.98.

`CCCS/C(N)=N/N=C/c1cc(C)ccc1O`: the z-score was -0.0872.

Turning to `Cc1ccc(-n2ncc3c(SCc4cccc(C)c4)ncnc32)cc1`, the z-score came to 2.66.

In turn, `CCCCN1C(=O)CCC(C(=O)O)C1c1ccc(OC)cc1` (stereo unspecified) came in with a z-score of 0.142.

The compound `COc1ccc(-c2nnc(SC3CCOC3=O)n2C2CCCCC2)cc1OC` (stereo unspecified) came in with a z-score of -0.0774.

The compound `Cc1cccc(C(P(=O)(c2ccccc2)c2ccccc2)P(=O)(c2ccccc2)c2ccccc2)n1` showed a z-score of -0.285.

Regarding `CCNS(=O)(=O)c1ccc2c3c(cccc13)C(=O)N2`, the z-score is -0.0155.

The compound `Cc1[nH]c2ccccc2c1C(=O)CN1CCC(C)CC1` came in with a z-score of -0.126.

As for `O=C1CCc2cc(S(=O)(=O)N3CCC(C(=O)Nc4nccs4)CC3)ccc2N1`, the z-score is -0.108.

The compound `CCN(CC)C(=O)CSCC(=O)Nc1ccccc1` gave a z-score of -0.539.

`Cc1[nH]n2c(=O)cc(Cc3ccccc3)nc2c1C#N` displayed a z-score of 0.0405.

`C/C(=N\NC(=O)C(=O)Nc1cccc(C(F)(F)F)c1)c1ccc(Cl)s1`: the z-score came to 0.376.

Consider `CCC(C)(C)NC(=S)Nc1ccc(-c2nc3ccc(C)cc3s2)cc1`, for which the z-score was -0.0204.

`COc1cccc(-n2nnc3c(=O)n(Cc4ccccc4F)cnc32)c1` registered a z-score of -0.331.

For `CC(C)(C)c1ccc(C(=O)NCC(=O)OCc2ccc([N+](=O)[O-])cc2)cc1`, the z-score was -0.34.

`Cc1nnc(N2CCN(c3ccccc3)CC2)[nH]c1=O`: the z-score was -0.24.

`OC(CNc1ccccc1)COc1ccc(OCC(O)CNc2ccccc2)cc1` (stereo unspecified) registered a z-score of -0.0572.

The compound `CC(C)(C)S(=O)(=O)c1cnc2c(-c3ccc(F)cc3)cnn2c1N` registered a z-score of -0.0351.

Consider `CCn1c(COc2ccccc2)nnc1SCc1ccc(C#N)cc1`, for which the z-score is -0.725.

With `COc1cccc(CNC(=O)c2ccccc2N)c1`, the z-score is 0.158.

Consider `COc1ccccc1NC(=O)c1ccc(NC(=O)c2cc3c(s2)CCC3)cc1`, for which the z-score was -0.346.

`COc1ccc(-c2cc(CNC(=O)CCl)on2)cc1` came in with a z-score of -0.113.

The compound `Nn1c(SCc2ccccc2)nnc1-c1ccco1` showed a z-score of 0.101.

As to `O=S(=O)(c1cccc(-c2nc3ccccc3s2)c1)N1CCCC1`, the z-score was -0.646.

On to `COC(=O)C(NC(C)=O)(Nc1ccccc1)C(=O)OC`, for which the z-score was 0.073.

Compound `O=C1S/C(=C\c2ccc(N3CCOCC3)o2)C(=O)N1Cc1c(F)cccc1Cl` returned a z-score of -1.67.

`Nn1c(SCC(=O)NC2CCCCC2)nnc1C1CC1` came in with a z-score of 0.0507.

Compound `O=C(O)C1CC=CCC1C(=O)Nc1cc(Cl)ccc1Cl` (stereo unspecified) returned a z-score of -0.205.

`C#CC1(O)CC(C)N(C)C(C)C1` (stereo unspecified) yielded a z-score of -0.0403.

On to `O=C(COC(=O)C1=COCCO1)Nc1ccc(Oc2ccccc2)cc1`, for which the z-score is -0.517.

Compound `CN(CCCC(=O)NCc1ccco1)S(=O)(=O)c1ccccc1` returned a z-score of 2.39.

Compound `CCOc1cc2c(C#N)c(N3CCNCC3)nc(N)c2c(N)n1` showed a z-score of 0.28.

The compound `CC(NC(=O)c1cccc2ccccc12)c1ccc2c(c1)CCCC2` (stereo unspecified) displayed a z-score of -0.156.

`CCN(CC)S(=O)(=O)c1ccc(/C=C/C(=O)Nc2ccc(F)cc2F)cc1` gave a z-score of -0.319.

The compound `O=C(Oc1nsnc1N1CCCCC1)N1CCOCC1` came in with a z-score of 0.353.

The compound `COc1ccc(OC)c(N(CC(=O)N2CCC(C)CC2)S(=O)(=O)c2ccc(OC)c(OC)c2)c1` returned a z-score of -0.0262.

The compound `Cc1[nH]n(-c2ccccc2)c(=O)c1/C=N/N(C)c1ccccc1` showed a z-score of 1.8.

Compound `O=S(=O)(c1ccc(F)cc1)N1CCn2c(nc3ccccc32)C1` yielded a z-score of -0.178.

Consider `COc1cccc(NC(=O)c2cn(C)c(=O)c3cc(OC)c(OC)cc23)c1`, for which the z-score is 0.0835.

`COCCNC(=O)c1ccccc1-c1nc(-c2ccccc2Cl)no1` had a z-score of -0.408.

Compound `Cn1c(=O)n(CC#N)c2ccccc21` had a z-score of -0.0717.

`CSc1nc(-c2ccccc2)ccc1C(N)=O` came in with a z-score of -0.167.

`CCCC(O)(CCC)C(=O)NN1CCCCC1` returned a z-score of -0.283.

The compound `Cc1ccc(C(=O)OCn2ncc(Cl)c(Cl)c2=O)cc1` returned a z-score of -1.15.

For the compound `CCCCNc1c(C(=O)OCC)c(=O)[nH]c2ccccc12`, the z-score is -1.17.

`CCc1ccc(/C=C2\Oc3cc(OS(C)(=O)=O)ccc3C2=O)cc1` had a z-score of -0.238.
